Assay results reported in paper PMC11335292.
No constants are given. Whether binding was seen depends on the method and setting. Binding seen in cells or lysates may run through a third protein. Some binding calls cover weakened binding; strength is not graded here.

Amino acid sequences for entries named in this document (tags omitted). A change or cut given only in a name is not applied to a line headed by its entry. Chains listed by the source or under a name are the forms on record and can include a tag or linker. Residues count along the entry.
UniProt P52480: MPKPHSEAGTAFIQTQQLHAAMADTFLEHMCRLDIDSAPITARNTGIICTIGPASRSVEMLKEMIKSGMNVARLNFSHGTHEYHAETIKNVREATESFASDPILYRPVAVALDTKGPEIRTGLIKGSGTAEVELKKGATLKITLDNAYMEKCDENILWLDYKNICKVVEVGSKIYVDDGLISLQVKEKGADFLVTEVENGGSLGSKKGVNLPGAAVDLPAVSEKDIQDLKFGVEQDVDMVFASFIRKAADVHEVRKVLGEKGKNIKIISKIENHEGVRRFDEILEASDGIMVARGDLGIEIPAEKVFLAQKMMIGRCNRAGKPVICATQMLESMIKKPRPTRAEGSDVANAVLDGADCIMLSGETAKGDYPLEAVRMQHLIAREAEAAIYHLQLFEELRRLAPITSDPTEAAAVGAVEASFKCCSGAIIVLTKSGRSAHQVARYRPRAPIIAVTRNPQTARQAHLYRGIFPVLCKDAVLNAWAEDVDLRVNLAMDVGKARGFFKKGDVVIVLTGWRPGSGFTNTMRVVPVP
PKM2 without C domain: residues 1-389 of P52480
PKM2 without N domain: residues 44-531 of P52480
PKM2 without A domain (P52480, form named): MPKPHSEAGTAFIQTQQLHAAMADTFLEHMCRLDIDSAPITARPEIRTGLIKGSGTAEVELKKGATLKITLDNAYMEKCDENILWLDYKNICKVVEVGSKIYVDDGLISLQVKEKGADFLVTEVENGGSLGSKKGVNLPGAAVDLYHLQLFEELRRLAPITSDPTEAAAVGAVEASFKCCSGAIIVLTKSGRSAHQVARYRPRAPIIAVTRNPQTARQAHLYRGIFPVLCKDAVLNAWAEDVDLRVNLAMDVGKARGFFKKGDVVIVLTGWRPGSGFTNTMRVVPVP
PKM2ΔB (P52480, form named): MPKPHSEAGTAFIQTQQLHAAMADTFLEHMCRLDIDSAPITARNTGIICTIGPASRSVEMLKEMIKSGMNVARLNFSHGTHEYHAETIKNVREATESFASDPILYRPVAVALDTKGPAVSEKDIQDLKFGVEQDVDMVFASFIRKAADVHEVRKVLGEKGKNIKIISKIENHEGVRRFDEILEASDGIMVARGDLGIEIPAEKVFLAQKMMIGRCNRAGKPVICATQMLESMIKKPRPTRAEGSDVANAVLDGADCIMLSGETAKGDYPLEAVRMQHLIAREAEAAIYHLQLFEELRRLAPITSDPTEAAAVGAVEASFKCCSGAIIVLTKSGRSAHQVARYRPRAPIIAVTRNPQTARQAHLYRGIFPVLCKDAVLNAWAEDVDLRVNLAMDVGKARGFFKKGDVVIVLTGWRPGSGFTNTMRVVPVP
UniProt O35129: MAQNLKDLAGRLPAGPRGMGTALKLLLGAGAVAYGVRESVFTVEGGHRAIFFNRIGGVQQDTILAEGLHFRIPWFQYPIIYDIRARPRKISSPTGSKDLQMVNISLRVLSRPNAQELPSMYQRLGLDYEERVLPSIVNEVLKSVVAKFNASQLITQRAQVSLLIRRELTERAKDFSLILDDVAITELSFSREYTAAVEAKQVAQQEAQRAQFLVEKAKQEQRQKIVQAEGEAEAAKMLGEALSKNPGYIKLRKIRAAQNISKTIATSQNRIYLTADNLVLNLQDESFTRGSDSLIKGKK
PHB2 without C-terminal domain (mouse (HL-1 cell cDNA)): residues 1-264 of O35129
PHB2 without N-terminal domain (mouse (HL-1 cell cDNA)): residues 51-299 of O35129
PHB2 without CC domain (mouse (HL-1 cell cDNA)) (O35129, form named): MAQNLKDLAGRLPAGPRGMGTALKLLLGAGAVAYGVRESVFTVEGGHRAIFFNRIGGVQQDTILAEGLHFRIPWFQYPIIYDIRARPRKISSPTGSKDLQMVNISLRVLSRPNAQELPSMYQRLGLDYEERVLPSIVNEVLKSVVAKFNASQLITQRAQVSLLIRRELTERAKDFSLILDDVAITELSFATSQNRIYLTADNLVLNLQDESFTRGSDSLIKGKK
PHB2 without PHB domain (mouse (HL-1 cell cDNA)) (O35129, form named): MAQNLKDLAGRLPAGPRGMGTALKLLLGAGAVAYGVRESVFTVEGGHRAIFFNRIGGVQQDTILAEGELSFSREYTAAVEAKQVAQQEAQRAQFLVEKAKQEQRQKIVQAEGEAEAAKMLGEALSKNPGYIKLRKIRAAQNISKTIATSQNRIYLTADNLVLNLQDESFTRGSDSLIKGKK

Tests used:
[1] = target: PKM2 without A domain (UniProt P52480); assay: co-IP; HL-1 cells transfected with domain-deletion mutants of PKM2 or of PHB2; IP buffer 150 mM NaCl, 10% glycerol, 20 mM Tris-HCl pH 7.4, 2 mM EDTA, 0.5% Nonidet P-40, 0.5% Triton X-100, 4 °C overnight; western blot
[2] = target: PKM2 without C domain (UniProt P52480); assay: as above
[3] = target: PKM2 without N domain (UniProt P52480); assay: as above
[4] = target: PKM2ΔB (UniProt P52480); assay: as above
[5] = target: PHB2 without C-terminal domain (mouse (HL-1 cell cDNA)) (UniProt O35129); assay: as above
[6] = target: PHB2 without CC domain (mouse (HL-1 cell cDNA)) (UniProt O35129); assay: as above
[7] = target: PHB2 without N-terminal domain (mouse (HL-1 cell cDNA)) (UniProt O35129); assay: as above
[8] = target: PHB2 without PHB domain (mouse (HL-1 cell cDNA)) (UniProt O35129); assay: as above
[9] = target: Prohibitin 2 (mouse (endogenous in HL-1)) (UniProt O35129); assay: co-IP; endogenous PKM2 and PHB2 in HL-1 cells, physiological condition or LPS; IP buffer 150 mM NaCl, 10% glycerol, 20 mM Tris-HCl pH 7.4, 2 mM EDTA, 0.5% Nonidet P-40, 0.5% Triton X-100, 4 °C overnight; western blot
[10] = target: Prohibitin 2 (mouse (endogenous in HL-1)) (UniProt O35129); assay: co-IP; HL-1 cells, with or without LPS; dimeric and tetrameric forms of PKM2 with PHB2; how the forms were told apart is not stated

Prohibitin 2 (from UniProt O35129 1-299)
binding [1]: binds
binding [2]: binds
binding [3]: binds
binding [4]: no binding

Pyruvate kinase M2 (from UniProt P52480 1-531) (enzyme)
binding [5]: binds
binding [6]: binds
binding [7]: binds
binding [8]: no binding
binding [9]: binds

dimeric PKM2 (from UniProt P52480 1-531) (enzyme)
binding [10]: binds
